Measured values taken from PubChem BioAssay AID624417 (National Center for Advancing Translational Sciences (NCATS), 2012).
The campaign covered roughly 410,000 compounds. About 6,400 (1.6%) were called active. This list was built around the results that the source calls inconclusive (neither active nor inactive); the mix of calls is not that of the screen. Calls come from the whole dose curve; as a rule, active = well fitted inhibition curve with a large enough effect; inconclusive = small, poorly fitted or top-dose-only effect; inactive = no such curve, though single readings can be large or run the other way. Potencies of inconclusive entries are doubtful fits and often do not repeat.

target: Glucagon-like peptide 1 receptor (Homo sapiens) (UniProt P43220); experiment: qHTS of GLP-1 Receptor Inverse Agonists (Inhibition Mode); conditions: HEK293 GLP-1R CRE-luciferase, luminescence, 24 h, GLP-1R form is constitutively active; activity change, negative = inhibition: at 38.3 µM (top of the series) unless noted; note: nearly all actives have a fitted effect of over 55% in size
Sequence of UniProt P43220 (P43220 whole entry, looked up): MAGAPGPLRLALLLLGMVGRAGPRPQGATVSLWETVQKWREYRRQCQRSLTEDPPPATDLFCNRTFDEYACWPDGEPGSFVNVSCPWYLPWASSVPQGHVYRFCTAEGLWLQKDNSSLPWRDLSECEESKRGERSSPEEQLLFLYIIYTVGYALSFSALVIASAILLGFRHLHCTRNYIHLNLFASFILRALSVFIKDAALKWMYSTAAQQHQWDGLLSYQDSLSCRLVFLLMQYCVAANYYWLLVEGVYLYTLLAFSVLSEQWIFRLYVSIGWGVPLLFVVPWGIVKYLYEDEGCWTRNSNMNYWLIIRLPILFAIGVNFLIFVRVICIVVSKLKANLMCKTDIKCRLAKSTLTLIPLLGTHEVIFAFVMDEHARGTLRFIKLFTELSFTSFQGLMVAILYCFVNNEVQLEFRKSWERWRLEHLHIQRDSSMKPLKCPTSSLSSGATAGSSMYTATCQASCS
Summary of the method: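 Cells are plated, allowed 12 hours at 37 deg C, then treated with compounds for 24 hr before luciferase detection reagent is added and luminescence is read after 12 min at room temperature. The HEK293 line carries constitutively active GLP-1R with a cAMP-responsive reporter.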
% is set by controls: 0 for no effect and ±100 for the full control effect; potency is the fitted concentration of half-maximal effect; tags give direction and shape of the fitted curve.

Potency, inconclusive:
C#CCN1C(=O)C(O)(CC(=O)/C=C/C=C/c2ccccc2)c2ccccc21 (stereo not given) 17.8 µM [inhibitor, single point], C=CCSc1nc(-c2ccc(OC)cc2)c(C#N)c(=O)n1CC=C 10 µM [inhibitor, partial curve, poor fit], CC1NC(=S)N(Cc2ccccc2)C1=O (stereo not given) 28.2 µM [inhibitor, single point], Cc1cc(C)c2c(CN3CCCCC3C)cc(=O)oc2c1 (stereo not given) 4.47 µM [inhibitor, partial curve, poor fit], O=C(C(=O)N1CCN(c2ccccc2Cl)CC1)c1c[nH]c2ccccc12 11.2 µM [inhibitor, partial curve, poor fit], CCC(=O)Nc1c(S(=O)(=O)c2ccccc2)c2nc3ccccc3nc2n1Cc1ccccc1 28.2 µM [inhibitor, single point], O=C(C1CCC1)N1CCN(S(=O)(=O)c2ccccc2)CC1 5.01 µM [inhibitor, full curve], Fc1ccccc1CSc1ncnc2sc3c(c12)CCCC3 28.2 µM [inhibitor, single point], O=C(CN1CCOCC1)N(c1ccccc1)c1ccc2ccccc2c1 8.91 µM [inhibitor, partial curve, poor fit], CCOc1ccc(NCc2cccn2-c2nnc(N3CCC(C(=O)NCCc4ccc(OC)c(OC)c4)CC3)s2)cc1 11.2 µM [inhibitor, single point], CC(=O)COc1nc2c(c(-c3ccco3)c1C#N)CCc1ccccc1-2 14.1 µM [inhibitor, single point], COc1ccc(-c2ccc(C(=O)NCCN3CCOCC3)c3occc23)c(C)c1 31.6 µM [inhibitor, partial curve, poor fit], Cc1ccc(Nc2nc(OC(C(F)(F)F)C(F)(F)F)nc(N3CCOCC3)n2)cc1 2.82 µM [inhibitor, full curve, poor fit], CCc1ccc(Nc2n[n+](-c3ccccc3)c(-c3ccc(OCc4ccccc4)cc3)s2)cc1 4.47 µM [inhibitor, full curve, poor fit], COc1cc(CN2CCCC(N3CCN(c4ccc(F)cc4)CC3)C2)ccc1F (stereo not given) 11.2 µM [inhibitor, partial curve, poor fit], O=NNc1nc2ccccc2n1Cc1ccccc1 8.91 µM [inhibitor, partial curve, poor fit], O=C(Nc1ccc2oc(Cc3ccc(Cl)cc3)nc2c1)c1cccnc1 7.94 µM [inhibitor, single point], O=C(c1ccc(C(F)(F)F)cc1)N1CCC(=O)N([C@H](COCc2ccc(Cl)cc2)Cc2ccccc2)CC1 10 µM [inhibitor, partial curve], CCCCC(=O)N1CCN(c2nc(-c3ccc(F)cc3)cs2)CC1 10 µM [inhibitor, partial curve, poor fit], O=C(Cc1c(F)cccc1Cl)Nc1ccccc1N1CCCCC1 31.6 µM [inhibitor, partial curve, poor fit], C#Cc1ccc(NC(=O)C2(C)CCN2C(=O)CC(c2ccccc2)c2ccccc2)cc1 (stereo not given) 28.2 µM [inhibitor, single point], CN1CCN(c2ccc(-c3cccc(NC(=O)COc4ccc(Cl)cc4)c3)nn2)CC1 11.2 µM [inhibitor, partial curve, poor fit], CCCn1c(/C=C/c2ccco2)nc2ccccc21 20 µM [inhibitor, single point], CCC1(c2ccccc2)NC(=O)N(CC(=O)N2CCc3ccccc32)C1=O (stereo not given) 28.2 µM [inhibitor, single point], OCCCNc1nc(-c2ccc(Cl)cc2)nc2ccccc12 12.6 µM [inhibitor, single point], CCN1CCN(c2ccc(NC(=O)c3cc4ccccc4cc3OC)cc2C)CC1 10 µM [inhibitor, single point], O=C(Nc1nc(-c2cc3ccccc3o2)cs1)c1ccc(S(=O)(=O)N2CCCC2)cc1 5.62 µM [inhibitor, partial curve, poor fit], Cc1ccc(NC(=O)C2(c3cccs3)CCOCC2)cc1C 22.4 µM [inhibitor, single point], CC(C(=O)Nc1ccc2c(c1)OCO2)c1ccc([N+](=O)[O-])cc1 (stereo not given) 31.6 µM [inhibitor, single point], Cc1n[nH]c(C)c1S(=O)(=O)N(CC(=O)NC(C)c1ccccc1)c1ccc(C(C)C)cc1 (stereo not given) 28.2 µM [inhibitor, single point], CN1C(=O)[C@H](Cc2ccc([N+](=O)[O-])cc2)NC1=S 1 µM [inhibitor, full curve, poor fit], S=C(NCc1cccc(Cl)c1)NC1CCCCC1 11.2 µM [inhibitor, single point], CC(C)CCNC(=O)Nc1ccc2c(c1)N(C)C(=O)c1ccccc1S2 11.2 µM [inhibitor, partial curve, poor fit], O=C(Nc1cccc(F)c1)Nc1cccc(Cl)c1 12.6 µM [inhibitor, partial curve, poor fit], CC(=O)c1ccc(NC(=O)CC2Nc3cccc4cccc(c34)NC2=O)cc1 (stereo not given) 6.31 µM [inhibitor, partial curve, poor fit], O=C(NC(c1ccccc1)c1ccc2ccccc2n1)C1CCN(Cc2ccc(Cl)c(Cl)c2)CC1 (stereo not given) 25.1 µM [inhibitor, partial curve, poor fit], CCC/C=C/c1ccc(CN2C(C)C(=O)N(Cc3cn(CC4CCCCC4)nn3)CCS2(=O)=O)cc1 (stereo not given) 28.2 µM [inhibitor, single point], COc1ccc(C2c3ccsc3CCN2C(=O)NC(C)(C)C)cc1 (stereo not given) 11.2 µM [inhibitor, partial curve, poor fit], COc1ccccc1COC(=O)C(NC(=O)c1ccc(C)cc1)C(C)C (stereo not given) 5.62 µM [inhibitor, partial curve], COc1ccccc1OCC(=O)N(Cc1ccc(Cl)cc1)CC1CCCO1 (stereo not given) 10 µM [inhibitor, single point], CC(c1ccccc1)N1C(=O)/C(=C/c2ccncc2)SC1=S (stereo not given) 10 µM [inhibitor, partial curve, poor fit], Cc1ccc(-c2nnc(SCC(C)C)n2C)cc1 7.94 µM [inhibitor, partial curve, poor fit], Cc1nn(-c2ccc(F)cc2)c(-n2cccc2)c1C(=O)NCCCN1CCN(c2ccccc2F)CC1 11.2 µM [inhibitor, partial curve, poor fit], Cc1occc1C(=O)N(C)CC1CCCN(CCc2ccc(Cl)cc2)C1 (stereo not given) 31.6 µM [inhibitor, single point], COc1ccc(OC)c(C2(O)CSC(=Nc3cccnc3)N2Cc2ccco2)c1 (stereo not given) 7.94 µM [inhibitor, partial curve]

Potency, active:
CCc1nc2c(OCc3ccc(C(F)(F)F)cc3)cccn2c1N(C)C(=O)C1CC1 14.1 µM, CCOc1ccc(NC(=S)N(CCc2c(C)[nH]c3ccccc23)Cc2cccnc2)cc1 10 µM, Cc1nc(Nc2nc(CSc3nc4ccccc4[nH]3)cc(=O)[nH]2)nc2ccccc12 1.12 µM

Activity change, negative = inhibition, inactive:
O=C(O)COc1ccc2c(c1)O/C(=C\c1ccco1)C2=O 1.01%, O=C(O)c1csc(-n2nc(-c3ccccc3)cc2C(F)(F)F)n1 9.36%, COc1ccc(NC(=O)c2cc(-c3ccco3)nc3ccccc23)cn1 3.04%, CC(C)c1ccc(-c2cc(C(=O)N3N=C(C(F)F)CC3(O)C(F)F)c3ccccc3n2)cc1 (stereo not given) 0%, O=C(NCCN1CCOCC1)c1ccc(Cl)c(Cl)c1 18.3%, Cc1ccc(-c2cc(C(=O)N3CCN(S(=O)(=O)c4ccc(Br)cc4)CC3)[nH]n2)cc1C 0.564%, O=C(Nc1cnn(Cc2ccc(Cl)c(Cl)c2)c1)c1nc2ncccn2n1 -18.5%, CN1CCN(/C(=N\O)c2nonc2N)CC1 8.75%, O=[N+]([O-])c1nn(-c2ccc3c(c2)OCCO3)n(O)c1=NC1CCN(Cc2ccccc2)CC1 -0.6%, O=C(NNc1nc(-c2ccccc2)cs1)c1ccc(F)cc1 10.2% [at 7.66 µM], Cc1ccc(NC(=O)Cn2c(=O)c3cc(Cl)ccc3n3nncc23)cc1 9.83%, CCN(CC)CCN(C(=O)c1ccc([N+](=O)[O-])cc1)c1nc2ccc(OC)cc2s1 5.63%, COC(=O)CS(=O)(=O)c1nc2ccccc2nc1N1CCCCC1 -28%, CCCCn1c(CN2CCN(c3ccccc3)CC2)nc2c1c(=O)n(C)c(=O)n2C 11.5%, Cc1cc(C)c(NC(=O)CN2CCN(S(=O)(=O)c3ccc4c(c3)OCCO4)CC2)c(C)c1 -4.5%, CCOC(=O)c1ccccc1NC(=O)Nc1cc2c(cc1N1CCCCC1)n(C)c(=O)n2C 0.179%, Cc1c(C)n2c(SCC(=O)N3CCC(C)CC3)nnc2[nH]c1=O -18.2%
